# Laboratory results from PMC4336329 (PLoS ONE, 2015).
# The campaign covered roughly 310,000 compounds. About 2,200 (0.71%) showed an effect of 50% or more. Effects have a minus sign here. The list shows a part of the results.
# Target: human ether-à-go-go-related gene (hERG) potassium channel (human, UniProt Q12809)
# Assay: primary screen, population patch clamp on CHO cells stably expressing hERG
# human ether-à-go-go-related gene (hERG) potassium channel, sequence (Q12809 whole entry, looked up): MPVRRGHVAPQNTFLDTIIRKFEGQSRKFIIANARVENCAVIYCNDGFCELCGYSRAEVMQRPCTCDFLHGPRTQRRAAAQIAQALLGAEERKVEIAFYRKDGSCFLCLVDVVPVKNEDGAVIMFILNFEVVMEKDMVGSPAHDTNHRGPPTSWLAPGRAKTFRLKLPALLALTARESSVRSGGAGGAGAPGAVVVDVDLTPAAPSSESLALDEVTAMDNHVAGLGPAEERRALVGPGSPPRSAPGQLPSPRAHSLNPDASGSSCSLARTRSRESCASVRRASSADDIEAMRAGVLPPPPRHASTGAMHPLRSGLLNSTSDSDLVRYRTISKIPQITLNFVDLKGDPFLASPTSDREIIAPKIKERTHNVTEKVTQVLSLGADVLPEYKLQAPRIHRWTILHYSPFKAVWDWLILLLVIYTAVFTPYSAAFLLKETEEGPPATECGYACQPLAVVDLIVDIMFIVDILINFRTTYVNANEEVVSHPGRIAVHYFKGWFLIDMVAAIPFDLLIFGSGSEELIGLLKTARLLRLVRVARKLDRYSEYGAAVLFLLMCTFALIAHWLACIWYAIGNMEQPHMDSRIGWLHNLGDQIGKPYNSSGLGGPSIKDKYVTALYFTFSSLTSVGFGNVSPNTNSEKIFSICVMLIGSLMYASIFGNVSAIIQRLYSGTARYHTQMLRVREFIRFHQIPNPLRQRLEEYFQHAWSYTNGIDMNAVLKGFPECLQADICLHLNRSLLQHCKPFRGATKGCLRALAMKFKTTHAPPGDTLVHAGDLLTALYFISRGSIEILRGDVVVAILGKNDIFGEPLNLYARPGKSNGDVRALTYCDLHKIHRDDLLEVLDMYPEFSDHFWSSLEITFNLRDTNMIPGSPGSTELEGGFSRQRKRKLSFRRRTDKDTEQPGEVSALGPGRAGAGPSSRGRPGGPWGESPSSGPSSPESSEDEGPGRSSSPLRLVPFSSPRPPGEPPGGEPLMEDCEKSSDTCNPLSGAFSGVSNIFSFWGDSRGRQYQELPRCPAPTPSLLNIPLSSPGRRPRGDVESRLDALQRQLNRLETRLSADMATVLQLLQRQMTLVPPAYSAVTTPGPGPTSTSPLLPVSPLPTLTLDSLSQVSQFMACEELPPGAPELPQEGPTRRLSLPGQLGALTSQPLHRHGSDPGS
row,Structure (SMILES),"hERG current change (%, negative = inhibition) at 1uM [%]"
1,O=C(Nc1ccc(Cc2ccncc2)cc1)c1ccc(Cl)c([N+](=O)[O-])c1,-9.04
2,CN1C/C(=C/c2cccs2)C(=O)/C(=C\c2cccs2)C1,8.83
3,COC(=O)c1ccccc1NC(=O)c1sc(N)nc1C,14.2
4,CCOC(=O)c1cc(=O)n2c(nc3ccccc32)[nH]1,8.33
5,NC(=O)NC(Cc1ccccc1)C(=O)O (centres unmarked),14.4
6,COc1ccc(NC(=O)Nc2ccc([N+](=O)[O-])cc2)cn1,8.9
7,COc1ccc(-c2nc3ccccc3c(=O)n2-c2c(C)n(C)n(-c3ccccc3)c2=O)cc1,10.9
8,CCS(=O)(=O)N1CCN(C(=O)COc2ccc(-c3ccccc3)cc2)CC1,-3.84
9,O=C(Cn1cc(S(=O)(=O)Cc2ccccc2)c2ccccc21)Nc1ccccc1,10.1
10,O=C(CN1C(=O)CCSc2ccc(S(=O)(=O)N3CCCC3)cc21)NCc1ccccc1Cl,5.83
11,CC(=O)Nc1ccc(S(=O)(=O)Nc2nnc(C3CCCCC3)s2)cc1,18.2
12,O=c1[nH]c(/C=C/c2cccc3ccccc23)nc2ccccc12,16.1
13,N#C/C(=C(/O)COc1ccccc1)c1nnc2n1CCCCC2,10.7
14,CN(Cc1cccs1)C(=O)CCc1c[nH]c2ccccc12,10.6
15,Cc1ccc(NC(=O)Cn2c(=O)c3cccn3c3ccccc32)c(C)c1,2.66
16,Cc1cc2oc(=O)cc(CN3CCN(S(=O)(=O)/C=C/c4ccccc4)CC3)c2cc1C,14.5
17,Cn1nnnc1SC(C(=O)Nc1ccc(F)cc1)c1ccccc1 (centres unmarked),11.9
18,COc1ccccc1N1CCN(S(=O)(=O)c2cc(-c3cc(C)no3)ccc2C(C)C)CC1,14.5
19,CCOc1ccc(N2C(=O)CC(N3CCc4ccccc43)C2=O)cc1 (centres unmarked),5.06

row,Structure (SMILES),"hERG current change (%, negative = inhibition) at 1uM [%]"
1,CC(=O)c1ccccc1OCCn1nnc(-c2ccc(C)cc2)n1,-21.2
2,CCOc1ccc(NC(=O)CCNC(=O)N2C[C@H]3C[C@@H](C2)c2cccc(=O)n2C3)cc1,13
3,COc1cccc(C(=O)CSc2nnc(-c3ccco3)n2CC2CCCO2)c1 (centres unmarked),0.587
4,Cc1cccn2c(=O)c3cc(S(=O)(=O)c4ccccc4)c(=N)n(Cc4cccnc4)c3nc12,-3.7
5,COc1ccc(S(=O)(=O)NCCCN2CCOCC2)cc1F,8.18
6,COc1ccc(S(=O)(=O)N(CC(=O)NCc2ccccn2)Cc2ccccc2)cc1,3.47
7,CCOC(=O)N1CCN(S(=O)(=O)c2ccc(C(=O)NNc3nc4c(C)cccc4s3)cc2)CC1,14.7
8,O=C(CSc1nnc(-c2ccc(O)cc2)o1)N1CCOCC1,9.95
9,CC(C)CNC(=O)C1C2C=CC(C2)C1C(=O)O (centres unmarked),18.5
10,COc1ccccc1C1CC(=O)NC(C)=C1C(=O)OCC1CCCO1 (centres unmarked),14.6
11,CC(C)(C)NC(=O)N1CCN(S(=O)(=O)c2ccc3c(c2)CCC3)CC1,8.69
12,COc1ccc(OCC(=O)N(Cc2ccc(C)o2)C2CCS(=O)(=O)C2)cc1 (centres unmarked),-2.17
13,O=C(N=Nc1c(O)[nH]c2ccccc12)c1ccc2c(c1)OCO2,6.77
14,O=C(NC1CCCC1)C(c1ccccc1F)N(C(=O)c1ccco1)C1CCCC1 (centres unmarked),2.59
15,O=C(Nc1cccnc1)c1ccc(NS(=O)(=O)c2cc([N+](=O)[O-])ccc2Cl)cc1,12.8
16,Cc1cccc(-c2nc3c(c(SCC(N)=O)n2)CCCC3)c1,9.62
17,COc1cccc(NC(=O)CN(C)C(=O)CCNC(=O)c2ccc(Br)cc2)c1,-3.64
18,Cc1ccc(S(=O)(=O)c2cc(Nc3ccccc3)ccc2O)cc1,11
19,COc1ccc(NC2CCCN(C(=O)CSc3ccccc3)C2)cc1 (centres unmarked),8.31

row,Structure (SMILES),"hERG current change (%, negative = inhibition) at 1uM [%]"
1,O=C(NCC1CCCO1)C(c1cccs1)N(Cc1ccccc1)C(=O)c1ccc(-c2ccccc2)[nH]1 (centres unmarked),3.27
2,O=C(NCCSCc1c(F)cccc1Cl)c1ccc(CN2CCOCC2)cc1,10.1
3,Cc1c(NC(=O)NC(=O)c2ccc(F)cc2)c(=O)n(-c2ccccc2)n1C,1.88
4,COc1cc(N)c(Cl)cc1C(=O)OCC(=O)N(C)C1CCCCC1,8.82
5,COCCNC(=O)/C(C#N)=C/c1ccc2c(c1)OCO2,17.1
6,COc1ccc(CN=Cc2[nH]c3ccc(Br)c(Cl)c3c2O)cc1,-1.23
7,COc1ccc(-c2nc3ccccc3c(=O)n2CCN2CCOCC2)cc1,10.1
8,COc1cc(CNc2ccc(C)c(C)c2)cc(OC)c1OC,8.04
9,COc1ccccc1/C=C1\SC(=S)N(N2C(=O)CCCC2=O)C1=O,7.97
10,Cc1cc(C)c(C#N)c(N2CCSCC2)n1,11.9
11,O=C(c1ccc(C(F)(F)F)cc1)C1CCCN(C(=O)c2csnn2)C1 (centres unmarked),9.85
12,O=C(Cc1ccc(F)cc1)Nc1cccc(-c2ccc3nncn3n2)c1,-1.56
13,O=C(NC(Cc1ccccc1)C(=O)O)/C(=C\c1ccc(Cl)cc1)NC(=O)c1ccccc1 (centres unmarked),22
14,COc1ccc(-c2nc3ccccn3c2NC2CCCCC2)cc1SC1CCCCC1.O=C(O)C(F)(F)F,11.7
15,Cc1c(C)c2c(C)nn(-c3ccccc3)c2[nH]c1=O,13.9
16,Cc1ccc(C)c(N2CCN(C(=O)c3csc4ccccc34)CC2)c1,-11.3
17,CCc1ccc(NC(=O)C/C(C)=N/NC(=O)COc2ccccc2C)cc1,-13.7
18,CCOC(=O)Nc1ccc2c(CN(C)Cc3ccc(F)cc3)cc(=O)oc2c1,7.02
